# Assay results as given in the supplement of paper PMC12217912.
# The list shows a part of the results. The full chains were built here from the parent and the listed change. Inactive controls read about 0.05.
# B1: TEV protease; numbered along this chain (parent)
# chain: MGESLFKGPRDYNPISSSICHLTNESDGHTTSLYGIGFGPFIITNKHLFRRNNGTLVVQSLHGVFKVKDTTTLQQHLVDGRDMIIIRMPKDFPPFPQKLKFREPQREERICLVTTNFQTKSMSSMVSDTSCTFPSGDGIFWKHWIQTKDGQCGSPLVSTRDGFIVGIHSASNFTNTNNYFTSVPKNFMELLTNQEAQQWVSGWRLNADSVLWGGHKVFMVKPEEPFQPVKEATQL
# Variants of: B1
# Test: raw area under fraction-flipped curve 0-4 h after induction (AUC4h, not background-subtracted), DNA-recorder readout of cleavage of the substrate (dimensionless); higher = more cleavage of the substrate by the protease variant
# Settings: temperature: 34 °C; time window: 0-4 h after rhamnose induction
# 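Note: Bxb1 expression induced with 0.2% (w/v) L-rhamnose at OD600 near 0.5, cultures sampled hourly, flipped fraction per protease–substrate barcode pair counted by paired-end Illumina sequencing.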
variant,measurement,value
MGESLFKGPRDYNPISSSICHLTNESDGHTTSLYGIGFGPFIITNKHLFRRNTGTLVVQSLHGVFKVKDTTTLQQHLVDGRDMIIIRMPKDFPPFPQKLKFREPQREERICLVTTNFQTKSMSSMVSDTSCTFPSGDGIFWKHWIQTKDGQCGSPLVSTRDGFIVGIHSASNFTNTNNYFTSVPKNFMELLTNQEAQQWVSGWRLNADSVLWGGHKVFMVKPEEPFQPVKEATQL [N53T],area with substrate ENLYDQS,0.088
same,area with substrate ENLYEQS,0.0654
same,area with substrate ENLYGQS,0.0537
same,area with substrate ENLYHQS,0.0631
same,area with substrate ENLYIQS,0.124
same,area with substrate ENLYKQS,0.0273
same,area with substrate ENLYMQS,0.0608
same,area with substrate ENLYNQS,0.0656
same,area with substrate ENLYPQS,0.0526
same,area with substrate ENLYRQS,0.0594
same,area with substrate ENLYSQS,0.0644
same,area with substrate ENLYWQS,0.0665
same,area with substrate ENLYYQS,0.0654
MGESLFKGPRDYNPISSSICHLTNESDGHTTSLYGIGFGPFIITNKHLFRRNNGTLVVQSLHGVFKVKDTTTLQQHLVDGRDMIIIRMPKDFPPFPQKLKFREPQREERICLVTTNFQTKSMSSMVSDTSCTFPSGDGIFWKHWIQTKDGQCGSPLVSTRDGFIFGIHSASNFTNTNNYFTSVPKNFMELLTNQEAQQWVSGWRLNADSVLWGGHKVFMVKPEEPFQPVKEATQL [V165F],area with substrate ENLYDQS,0.0567
same,area with substrate ENLYEQS,0.0506
same,area with substrate ENLYHQS,0.0644
same,area with substrate ENLYMQS,0.052
same,area with substrate ENLYNQS,0.0629
same,area with substrate ENLYPQS,0.0541
same,area with substrate ENLYRQS,0.0459
same,area with substrate ENLYSQS,0.0525
same,area with substrate ENLYVQS,0.0586
same,area with substrate ENLYWQS,0.0543
MGESLFKGPRDYNPISSSICHLTNESDGHTTSLYGIGFGPFIITNKHLFRRNNGTLVVQSLHGVFKVKDTTTLQQHLVDGRDMIIIRMPKDFPPFPQKLKFREPQREERICLVTTNFQTKSMSSMVSDTSCTYPSGDGIFWKHWIQTKDGQCGSPLVSTRDGFIVGIHSASNFTNTNNYFTSVPKNFMELLTNQEAQQWVSGWRLNADSVLWGGHKVFMVKPEEPFQPVKEATQL [F133Y],area with substrate ENLYDQS,0.0552
same,area with substrate ENLYEQS,0.0427
same,area with substrate ENLYHQS,0.0625
same,area with substrate ENLYIQS,0.113
same,area with substrate ENLYKQS,0.0632
same,area with substrate ENLYMQS,0.0812
same,area with substrate ENLYNQS,0.0739
same,area with substrate ENLYQQS,0.0685
same,area with substrate ENLYVQS,0.124
MGESLFKGPRDYNPISSSICHLTNESDGHTTSLYGIGFGPFIITNKHLFRRNNGTLVVQSLHGVFKVKDTTTLQQHLVDGRDMIIIRMPKDFPPFPQKLKFREPQREERICLVTTNFQTKSMSSMVSDTSCTFPSGDGIFWKHWIQTKDGQCGSPLVSTRDGFIVGIHSASNFTNTNNYFASVPKNFMELLTNQEAQQWVSGWRLNADSVLWGGHKVFMVKPEEPFQPVKEATQL [T181A],area with substrate ENLYDQS,0.0534
same,area with substrate ENLYEQS,0.063
same,area with substrate ENLYGQS,0.0745
same,area with substrate ENLYHQS,0.0583
same,area with substrate ENLYIQS,0.0835
same,area with substrate ENLYMQS,0.0834
same,area with substrate ENLYQQS,0.0713
same,area with substrate ENLYSQS,0.0762
same,area with substrate ENLYYQS,0.0738
MGESLFKGPRDYNPISSSICHLTNESDGHTTSLGGIGFGPFIITNKHLFRRNNGTLVVQSLHGVFKVKDTTTLQQHLVDGRDMIIIRMPKDFPPFPQKLKFREPQREERICLVTTNFQTKSMSSMVSDTSCTFPSGDGIFWKHWIQTKDGQCGSPLVSTRDGFIVGIHSASNFTNTNNYFTSVPKNFMELLTNQEAQQWVSGWRLNADSVLWGGHKVFMVKPEEPFQPVKEATQL [Y34G],area with substrate ENLYDQS,0.0677
same,area with substrate ENLYEQS,0.03
same,area with substrate ENLYHQS,0.0428
same,area with substrate ENLYKQS,0.0597
same,area with substrate ENLYSQS,0.0549
same,area with substrate ENLYVQS,0.0697
same,area with substrate ENLYWQS,0.0677
same,area with substrate ENLYYQS,0.0583
MGESLFKGPRDYNPISSSICHLTNESDGHTTSLYGIGFGPFIITNKHLFRRNNGTLVVQSLHGVFKVKDTTTLQQHLVDGRDMIIIRMPKDFPPFPQKLKFREPQREERICLVTTNFQTKSMSSMVSDTSCTFPSGDGIFWKHWIQTKDGQCGSPLVSLRDGFIVGIHSASNFTNTNNYFTSVPKNFMELLTNQEAQQWVSGWRLNADSVLWGGHKVFMVKPEEPFQPVKEATQL [T159L],area with substrate ENLYDQS,0.0575
same,area with substrate ENLYEQS,0.0582
same,area with substrate ENLYGQS,0.0529
same,area with substrate ENLYHQS,0.0473
same,area with substrate ENLYIQS,0.119
same,area with substrate ENLYKQS,0.0377
same,area with substrate ENLYNQS,0.0616
same,area with substrate ENLYQQS,0.0554
same,area with substrate ENLYSQS,0.0593
same,area with substrate ENLYVQS,0.0867
same,area with substrate ENLYWQS,0.082
same,area with substrate ENLYYQS,0.074
MGESLFKGPRDYNPISSSICHLTNESDGHTTSLYGIGFGPFIITNKHLFRRNNGTLVVQSLHGVFKVKDTTTLQQHLVDGRDMIIIRMPKDFPPVPQKLKFREPQREERICLVTTNFQTKSMSSMVSDTSCTFPSGDGIFWKHWIQTKDGQCGSPLVSTRDGFIVGIHSASNFTNTNNYFTSVPKNFMELLTNQEAQQWVSGWRLNADSVLWGGHKVFMVKPEEPFQPVKEATQL [F95V],area with substrate ENLYDQS,0.0598
same,area with substrate ENLYEQS,0.0569
same,area with substrate ENLYHQS,0.0619
same,area with substrate ENLYKQS,0.0561
same,area with substrate ENLYRQS,0.0718
same,area with substrate ENLYSQS,0.102
same,area with substrate ENLYVQS,0.103
same,area with substrate ENLYWQS,0.0651
same,area with substrate ENLYYQS,0.0376
MGESLFKGPRDYNPISSSICHLTNESDGHTTSLYGIGFGPFIITNKHLFRRNNGTLVVQSLHGVFKVKDTTTLQQHLVDGRDMIIIRMPKDFPPFPQKLKFREPQREERICLVTTNFQTKSMSSMVSDTSCTFPSMDGIFWKHWIQTKDGQCGSPLVSTRDGFIVGIHSASNFTNTNNYFTSVPKNFMELLTNQEAQQWVSGWRLNADSVLWGGHKVFMVKPEEPFQPVKEATQL [G136M],area with substrate ENLYDQS,0.0553
same,area with substrate ENLYEQS,0.0638
same,area with substrate ENLYGQS,0.077
same,area with substrate ENLYIQS,0.0791
same,area with substrate ENLYMQS,0.1
same,area with substrate ENLYNQS,0.0881
same,area with substrate ENLYPQS,0.0669
same,area with substrate ENLYRQS,0.0615
same,area with substrate ENLYSQS,0.0852
same,area with substrate ENLYTQS,0.0846
same,area with substrate ENLYVQS,0.17
same,area with substrate ENLYWQS,0.0926
MGESLFKGPRDYNPISSSICHLTNESDGHTTSLYGIGFGPFIITNKHLFRRNNGTLVVQSLHGVFKVKDTTTLQQHLVDGRDMIIIRMPKDFPPFPQKLKFREPQREERICLVTTNFQTKSMSSMVSDTSCTFPSGDGIFWKHWIQTKDGQCGSCLVSTRDGFIVGIHSASNFTNTNNYFTSVPKNFMELLTNQEAQQWVSGWRLNADSVLWGGHKVFMVKPEEPFQPVKEATQL [P155C],area with substrate ENLYDQS,0.0485
same,area with substrate ENLYEQS,0.0447
same,area with substrate ENLYGQS,0.0398
same,area with substrate ENLYHQS,0.0668
same,area with substrate ENLYIQS,0.13
same,area with substrate ENLYKQS,0.039
same,area with substrate ENLYNQS,0.0576
same,area with substrate ENLYPQS,0.0574
same,area with substrate ENLYQQS,0.0697
same,area with substrate ENLYRQS,0.076
same,area with substrate ENLYSQS,0.0688
same,area with substrate ENLYVQS,0.0914
same,area with substrate ENLYWQS,0.0771
same,area with substrate ENLYYQS,0.0642
MGESLFKGPRDYNPISSSLCHLTNESDGHTTSLYGIGFGPFIITNKHLFRRNNGTLVVQSLHGVFKVKDTTTLQQHLVDGRDMIIIRMPKDFPPFPQKLKFREPQREERICLVTTNFQTKSMSSMVSDTSCTFPSGDGIFWKHWIQTKDGQCGSPLVSTRDGFIVGIHSASNFTNTNNYFTSVPKNFMELLTNQEAQQWVSGWRLNADSVLWGGHKVFMVKPEEPFQPVKEATQL [I19L],area with substrate ENLYDQS,0.0529
same,area with substrate ENLYEQS,0.0717
same,area with substrate ENLYGQS,0.0641
same,area with substrate ENLYHQS,0.0751
same,area with substrate ENLYKQS,0.0391
same,area with substrate ENLYMQS,0.0761
same,area with substrate ENLYNQS,0.0751
same,area with substrate ENLYPQS,0.0838
same,area with substrate ENLYQQS,0.0641
same,area with substrate ENLYSQS,0.0847
same,area with substrate ENLYTQS,0.066
same,area with substrate ENLYWQS,0.0945
same,area with substrate ENLYYQS,0.0431
